Among all 390,000 compounds or so, about 17,000 (4.4%) were called active. Inconclusive results, whose numbers are uncertain, are shown with a selection of clear calls. Calls come from the whole dose curve; as a rule, active = well fitted inhibition curve with a large enough effect; inconclusive = small, poorly fitted or top-dose-only effect; inactive = no such curve, though single readings can be large or run the other way. Potencies beside an inconclusive call are fits to weak or partial responses and may not hold up. The source holds several records for some structures; these can differ, active in one and inactive in another.
target: Lysine-specific demethylase 4A (Homo sapiens) (UniProt O75164); experiment: qHTS Assay for Inhibitors of JMJD2A-Tudor Domain; details: AlphaScreen JMJD2A-Tudor / H3K4me3 peptide binding; activity change, negative = inhibition: at 114 µM (top of the series); note: nearly all actives have a fitted effect of over 50% in size
UniProt O75164, sequence (O75164 whole entry, looked up, the tested form may be a part): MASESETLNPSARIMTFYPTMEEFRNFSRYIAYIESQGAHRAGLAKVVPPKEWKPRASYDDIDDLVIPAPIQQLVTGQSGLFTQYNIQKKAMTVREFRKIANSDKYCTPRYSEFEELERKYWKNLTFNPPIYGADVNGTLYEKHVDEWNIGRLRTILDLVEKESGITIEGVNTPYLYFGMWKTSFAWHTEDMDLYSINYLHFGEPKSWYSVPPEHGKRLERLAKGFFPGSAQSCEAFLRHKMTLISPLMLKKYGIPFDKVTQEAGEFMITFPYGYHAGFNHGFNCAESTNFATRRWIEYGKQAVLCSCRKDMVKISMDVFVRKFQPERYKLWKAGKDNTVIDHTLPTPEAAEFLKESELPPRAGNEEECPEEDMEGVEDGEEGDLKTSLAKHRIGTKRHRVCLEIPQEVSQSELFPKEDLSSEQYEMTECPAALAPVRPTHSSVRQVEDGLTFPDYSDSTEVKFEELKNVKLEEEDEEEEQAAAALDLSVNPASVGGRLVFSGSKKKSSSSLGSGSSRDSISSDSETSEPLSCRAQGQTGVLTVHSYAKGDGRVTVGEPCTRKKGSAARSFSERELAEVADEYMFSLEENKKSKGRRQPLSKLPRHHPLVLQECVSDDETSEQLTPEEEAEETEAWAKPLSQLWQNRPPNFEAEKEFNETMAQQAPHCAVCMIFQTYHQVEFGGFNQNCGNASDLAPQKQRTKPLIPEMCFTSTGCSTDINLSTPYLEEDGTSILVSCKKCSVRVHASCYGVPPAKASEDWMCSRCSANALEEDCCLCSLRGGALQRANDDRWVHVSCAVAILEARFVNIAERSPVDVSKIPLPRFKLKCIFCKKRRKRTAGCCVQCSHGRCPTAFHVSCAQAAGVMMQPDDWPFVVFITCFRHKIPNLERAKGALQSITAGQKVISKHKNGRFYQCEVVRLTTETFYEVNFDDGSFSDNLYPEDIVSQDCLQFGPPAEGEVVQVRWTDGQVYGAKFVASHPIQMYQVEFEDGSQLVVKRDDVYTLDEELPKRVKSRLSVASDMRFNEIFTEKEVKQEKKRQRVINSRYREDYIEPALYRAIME
% is set by controls: 0 for no effect and ±100 for the full control effect; potency is the fitted concentration of half-maximal effect; tags give direction and shape of the fitted curve.

SMILES | Potency | activity change, negative = inhibition
Cc1ccc(Cn2ncc3c(N4CCN(Cc5ccc(Cl)cc5)CC4)ncnc32)cc1 | inactive | 
CCOC(=O)c1ccc(S(=O)(=O)Nc2nc3cc(S(=O)(=O)NC4=NCCCCC4)ccc3s2)cc1 | active: 89.1 µM | 
O=C(c1cc2ccccc2oc1=O)N(Cc1cccs1)Cc1cccs1 | active: 28.2 µM | 
O=c1c2c3c(sc2nc2n1CCCCC2)CCCC3 | inconclusive: 89.1 µM [inhibitor, single point] | 
CCCCN1C(=O)/C(=C2/C=CC=CN2C)SC1=S | active: 44.7 µM | 
Nc1ccc2c(c1)C(=O)c1cc(N)c(Cl)cc1-2 | inconclusive: 35.5 µM [inhibitor, partial curve] | 
CCc1ccc(/C(C)=N/NC(=O)CNC(=O)/C=C/c2ccco2)cc1 | active: 22.4 µM | 
CC(C)(C)c1ccc(NC(=O)COC(=O)c2ccc([N+](=O)[O-])s2)cc1 | inconclusive: 50.1 µM [inhibitor, partial curve] | 
COc1ccc2c(CC(=O)OCC(=O)Nc3ccccc3[N+](=O)[O-])coc2c1 | inconclusive: 39.8 µM [inhibitor, full curve] | 
Cc1nc(N)[nH]c(=O)c1CCC(=O)OCC(C)C | inactive | 
CC1=CC(C)(C)Nc2ccccc21 | inconclusive: 79.4 µM [inhibitor, partial curve] | 
COc1ccc(/C=N/NC(=O)c2nn(-c3ccccc3)c(=O)c3c(N)scc23)cc1 | active: 5.62 µM | 
CSc1nnc2ccc(-c3cccs3)nn12 | inactive | 
COCCn1c(C23CC4CC(CC(C4)C2)C3)n[nH]c1=S | active: 7.08 µM | 
c1ccc(Nc2nc(-c3cccs3)cs2)nc1 |  | inactive: -28.1% [at 11.4 µM]
N#Cc1ccc(C(=O)N2CCC3CC2c2cc(-c4ccc(F)cc4)ccc23)cc1 (configuration not stated) | inactive | 
C/C(=C\c1ccc2c(c1)OCO2)C1Nc2cccc3cccc(c23)N1 | inconclusive: 11.2 µM [inhibitor, partial curve] | 
CC(/C=C\c1cccnc1)=C/C(=O)O | active: 56.2 µM | 
COc1ccc(N(C(=O)/C=C\C(=O)Nc2ccc(C)cc2)C(C(=O)NCc2ccco2)c2ccc(C)cc2)cc1 (configuration not stated) | inconclusive: 50.1 µM [inhibitor, partial curve] | 
CCNC(=S)/N=C(/Nc1ccc(OC)cc1)Nc1nc(C)cc(C)n1 | inactive | 
Cc1cccc(N2CCN(C(=O)CC(NC(=O)c3ccccc3)c3ccccc3)CC2C)c1 (configuration not stated) | inconclusive: 50.1 µM [inhibitor, partial curve] | 
CC[n+]1c(/C=C2/C=C(C)CC(C)C2)sc2ccccc21 (configuration not stated) | active: 31.6 µM | 
Cc1ccc2cccc(OC(=O)c3ccc4c(c3)OCCO4)c2n1 | inconclusive: 3.16 µM [inhibitor, full curve, poor fit] | 
CCCOc1ccc(OCCN2CCCC(C)C2)cc1 (configuration not stated) | inconclusive: 3.98 µM [inhibitor, single point] | 

SMILES | Potency | activity change, negative = inhibition
C=CCn1c(C)cc(C(=O)CN2C(=O)NC3(CCCc4ccccc43)C2=O)c1C (configuration not stated) | inconclusive: 70.8 µM [inhibitor, single point] | 
Cc1ccc(C2=Nc3ccccc3N=C(C(Cl)Cl)C2)cc1 | inconclusive: 79.4 µM [inhibitor, partial curve] | 
COc1ccc(-c2nc(CS(=O)CC(=O)NC3CCC(C)CC3)c(C)o2)cc1OC (configuration not stated) | inconclusive: 89.1 µM [inhibitor, partial curve] | 
COc1cc(C2c3c(-c4ccccc4O)n[nH]c3C(=O)N2Cc2ccco2)ccc1OCC(C)C (configuration not stated) | inconclusive: 39.8 µM [inhibitor, partial curve] | 
O=C1NC(=O)/C(=C\c2ccc(O)cc2O)S1 | active: 20 µM | 
CNC(=S)N/N=C(\C)c1ccc(Cl)c(Cl)c1 | inconclusive: 79.4 µM [inhibitor, partial curve] | 
Cc1ccc(-c2nn3c(C)nnc3s2)cc1NC(=O)c1ccc(-c2cccc(Cl)c2)o1 | inconclusive: 63.1 µM [inhibitor, partial curve, poor fit] | 
CCOC(=O)c1c(C)[nH]c(C)c1C(=O)COC(=O)CSc1ccc(C)cc1 | inconclusive: 50.1 µM [inhibitor, partial curve] | 
COC(=O)CC1=NN(c2ccccc2)C(=O)C1 | inactive | 
CON=C(C(=O)NC1C(=O)N2C(C(=O)O)=C(CSc3nc(=O)c(=O)[nH]n3C)CSC12)c1csc(N)n1 (configuration not stated) | active: 50.1 µM | 
CCc1ccc(C(c2c(C)nn(-c3ccccc3)c2N)c2c(C)nn(-c3ccccc3)c2N)cc1 | active: 56.2 µM | 
Cc1cccc(N2CCN(C(=O)c3cc(C)oc3C)CC2C)c1 (configuration not stated) | inactive | 
Oc1ccccc1C(Nc1nccs1)c1ccc2cccnc2c1O (configuration not stated) | active: 35.5 µM | 
O=C(CN1CCSc2ccccc21)N1CCN(c2ccc(F)cc2)CC1 | inconclusive: 50.1 µM [inhibitor, partial curve] | 
CCOC(=O)Cc1csc(NC(=O)/C=C/c2ccc(Cl)cc2)n1 | inactive | 
CCN(CCNc1ccc(Cl)cc1[N+](=O)[O-])C(=O)c1cc([N+](=O)[O-])c(N(C)C)cc1OC | inconclusive: 50.1 µM [inhibitor, partial curve] | 
CCCOc1ccc(OCCOCCN2CCc3ccccc3C2)cc1 | active: 3.55 µM | 
O=C(c1cccc2ccccc12)C1CCCN(C(=O)c2ccc(N3CCOCC3)cc2)C1 (configuration not stated) | inconclusive: 63.1 µM [inhibitor, partial curve] | 
CCOc1ccc(NC(=S)Nc2cc(C)[nH]n2)cc1 |  | inconclusive: -36.2% [inhibitor]
CC(C)c1ccc2c(c1)C(c1ccc(N3CCOCC3)cc1)=NNC(c1cccs1)=N2 | inconclusive: 11.2 µM [inhibitor, full curve] | 
CCOc1ccc(CNC(=O)CCCc2cn(C)c3ccccc23)cc1OC | inconclusive: 44.7 µM [inhibitor, partial curve] | 
C/C(=N\Nc1ccc([N+](=O)[O-])cc1)c1ccc(N)cc1 | inconclusive: 56.2 µM [inhibitor, partial curve] | 
COc1cc([N+](=O)[O-])cc(/C=N/NC(=O)Cn2nc(C)cc2C)c1O | active: 79.4 µM | 

Reference: PubChem BioAssay AID504339 (National Center for Advancing Translational Sciences (NCATS), 2011)
